Data from PubChem BioAssay AID588342 (National Center for Advancing Translational Sciences (NCATS), 2011).
Screen size: about 360,000 compounds; about 25,000 (6.9%) were called active. Inconclusive means that the source gave no clear call. Such entries were picked first, then a sample of the others. Calls follow the shape of the dose curve; as a rule, active = well fitted inhibition curve with a large enough effect; inconclusive = small, poorly fitted or top-dose-only effect; inactive = flat fitted curve, though single readings scatter. Potencies beside an inconclusive call are fits to weak or partial responses and may not hold up.

The compounds below were run against Luciferin 4-monooxygenase (Photinus pyralis) (UniProt P08659) (assay: qHTS profiling assay for firefly luciferase inhibitor/activator using purifed enzyme and Km concentrations of substrates (counterscreen for miR-21 project)). Conditions: purified FLuc, luminescence inhibition; series mostly up to 57.5 µM.
UniProt P08659, sequence (P08659 whole entry, looked up): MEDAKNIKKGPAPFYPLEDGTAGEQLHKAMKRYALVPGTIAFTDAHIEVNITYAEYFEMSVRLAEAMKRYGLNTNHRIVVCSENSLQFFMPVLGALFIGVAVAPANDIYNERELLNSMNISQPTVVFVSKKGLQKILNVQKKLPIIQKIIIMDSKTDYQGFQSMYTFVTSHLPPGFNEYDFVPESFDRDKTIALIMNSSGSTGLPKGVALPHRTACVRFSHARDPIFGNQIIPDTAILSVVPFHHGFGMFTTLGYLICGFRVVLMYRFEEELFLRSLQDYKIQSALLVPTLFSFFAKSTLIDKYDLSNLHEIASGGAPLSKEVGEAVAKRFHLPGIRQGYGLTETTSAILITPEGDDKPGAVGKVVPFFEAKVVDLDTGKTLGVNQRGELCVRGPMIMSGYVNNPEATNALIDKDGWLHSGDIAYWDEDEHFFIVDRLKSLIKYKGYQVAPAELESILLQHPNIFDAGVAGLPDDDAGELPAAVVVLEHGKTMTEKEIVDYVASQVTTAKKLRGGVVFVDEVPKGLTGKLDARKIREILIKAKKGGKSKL
Outline: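 Purified P. pyralis luciferase (10nM final) with 10uM D-luciferin and 10uM ATP (Km levels) in 50mM Tris acetate pH 7.5, 10mM Mg acetate, 0.01% Tween-20, 0.05% BSA; qHTS 6-point titration, ~60 µM downward; luminescence read.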
Also: nearly all actives have a fitted effect of over 55% in size.
Potency is read from the fitted curve at half-maximal effect; tags tell the direction and shape of the fitted curve.

SMILES | Potency
CCOC(=O)c1c(C)oc2nc(C)nc(NCC3CCN(Cc4ccc(C)cc4)CC3)c12 | inactive
O=C(COc1ccc(F)cc1)Nc1nc(-c2ccccn2)cs1 | inconclusive: 37.9 µM [inhibitor, single point]
Fc1ccc(Nc2ccnc(C(F)(F)F)c2)cc1 | inactive
O=C(Nc1c(Cl)cccc1Cl)c1cc(-c2ccco2)on1 | inconclusive: 37.9 µM [inhibitor, partial curve, poor fit]
CCOc1cccc2sc(NN)nc12 | inconclusive: 26.9 µM [inhibitor, single point]
CSc1nc(-c2ccccc2)cn1-c1ccc(NC(C)=O)cc1 | inconclusive: 37.9 µM [inhibitor, partial curve, poor fit]
Cc1ccc(C2C(C(=O)c3cccs3)=C(O)C(=O)N2c2nnc(C)s2)cc1 (stereo unspecified) | inconclusive: 26.9 µM [inhibitor, single point]
CCc1cccc(C)c1NC(=O)Cn1nc(C)n2cccc2c1=O | inactive
COC(=O)c1cc2oc(C)cc2n1CC(=O)Nc1ccc(C(C)C)cc1 | inconclusive: 13.5 µM [inhibitor, partial curve, poor fit]
CCCOc1ccc(/C=C/C(=O)NCc2ccccc2)cc1 | inconclusive: 10.7 µM [inhibitor, partial curve]
Cc1ccc2nc(N(CCN(C)C)C(=O)c3ccc4c(c3)OCCO4)sc2c1 | inconclusive: 26.9 µM [inhibitor, single point]
COc1ccc(C(=O)Nc2ccc(N(C)Cc3ccccc3)c(C(=O)O)c2)cc1 | inconclusive: 26.9 µM [inhibitor, partial curve, poor fit]
COc1cc(CCCN2C(N)=NC[C@H]2Cc2ccc(O)cc2)cc(OC)c1OC | inactive
Cc1csc(NC(=O)c2cn3ccccc3n2)n1 | active: 2.13 µM
COC(=O)c1cc(NC(=O)c2cc(-c3ccc(OC)cc3)oc2C(F)(F)F)ccc1N1CCOCC1 | inconclusive: 30.1 µM [inhibitor, partial curve, poor fit]
CC(C)NC(=O)N1[C@H](c2cccs2)[C@@H](C)C(=O)[C@@H](C)[C@@H]1c1cccs1 | inactive
O=C(Nc1ccc(C(=O)O)c(O)c1)c1ccccc1 | active: 15.1 µM
Cc1c(C(=O)N(CCO)Cc2ccccc2)oc2c(F)cccc12 | active: 16.9 µM
Cc1cc(SCC(=O)c2ccccc2)nc(C)n1 | active: 12 µM
Clc1cccc(CSc2nnc(-c3c[nH]c4ccccc34)o2)c1 | inconclusive: 26.9 µM [inhibitor, single point]
CCOC(=O)c1c(C2COc3ccccc3O2)csc1NC(=O)c1ccco1 (stereo unspecified) | inconclusive: 37.9 µM [inhibitor, partial curve, poor fit]
COc1ccccc1C(=O)N/C(N)=N/c1nc2ccccc2o1 | inconclusive: 2.39 µM [inhibitor, full curve]
O=C(O)c1ccc(Nc2nc(-c3cccnc3)nc3ccccc23)cc1 | inconclusive: 16.9 µM [inhibitor, partial curve, poor fit]
COc1cccc(C(=O)NCc2ccc3c(c2)OCO3)c1OC | inactive

SMILES | Potency
OCCN1CCN(c2cc(C(F)(F)F)nc3ccccc23)CC1 | inactive
C=CCOc1ccc(C=Nc2ccc(Cl)cc2)c(O)c1 | inconclusive: 23.9 µM [inhibitor, single point]
Cc1nn(-c2ccccc2)c(C)c1/C=N/NC(=O)c1cc(C(C)(C)C)[nH]n1 | inconclusive: 30.1 µM [inhibitor, partial curve, poor fit]
CCOc1ccccc1NC(=O)CN(C)S(=O)(=O)c1ccc(C(=O)N2CCOCC2)s1 | inactive
COc1cccc(OCCCCSc2ncccn2)c1 | inconclusive: 26.9 µM [inhibitor, single point]
CCCc1nnc(NC(=O)c2nc(SCC)ncc2Cl)s1 | inconclusive: 26.9 µM [inhibitor, partial curve, poor fit]
Cc1ccc(NC(=O)Nc2ccc3c(c2)nc(C)n3C)cc1 | active: 3.01 µM
COc1ccc(NC(=O)CN(C)C(=O)c2cc(-c3ccc(OC)cc3)nc3ccccc23)cc1 | active: 8.49 µM
Cc1ccc2occ(/C=C/C(=O)O)c(=O)c2c1 | inconclusive: 37.9 µM [inhibitor, single point]
CC(=O)Cc1nsc(NC(=O)c2csc3c2CCCC3)n1 | inconclusive: 16.9 µM [inhibitor, partial curve]
CCn1c2ccccc2c2nnc(SCC(=O)Nc3ccc4c(c3)OCO4)nc21 | inconclusive: 30.1 µM [inhibitor, partial curve, poor fit]
CCOc1ccc(N(CC(=O)NC2CCCCCC2)S(=O)(=O)c2ccccc2)cc1 | inconclusive: 21.3 µM [inhibitor, single point]
CSc1ncccc1C(=O)OCc1c(F)cccc1Cl | inconclusive: 26.9 µM [inhibitor, partial curve]
CCOC(=O)CNC(=O)N1CCCN(S(=O)(=O)c2ccc3c(ccn3CC)c2)CC1 | inactive
Cc1ccc(-c2cc3ncc4c(n3n2)-c2cc(F)ccc2OC4)cc1 | inactive
Cc1ccc(-c2nnc(NC3CCCC3)s2)cc1 | active: 3.01 µM
NS(=O)(=O)c1ccc(NC(=O)Nc2cccc(Cl)c2)cc1 | inconclusive: 26.9 µM [inhibitor, partial curve, poor fit]
CCc1nn2c(=O)cc(COC(=O)c3ccccc3)nc2s1 | active: 16.9 µM
COc1ccc2oc(C(=O)Nc3ccccn3)c(C)c2c1 | active: 0.601 µM
CCC1CCCCN1S(=O)(=O)c1ccc(S(=O)(=O)N(Cc2ccccn2)CC2CCCO2)cc1 (stereo unspecified) | inactive
CCOc1ccccc1-n1c(SCC(=O)Nc2ccccc2C(=O)O)nc2ccccc2c1=O | active: 12 µM
COc1ccc(/C=N/NC(=O)c2ccc(-n3cnnn3)cc2)cc1 | active: 10.7 µM
CC1CCc2sc3nc(NCc4ccco4)n4ncnc4c3c2C1 (stereo unspecified) | inconclusive: 26.9 µM [inhibitor, partial curve, poor fit]
COc1ccc(-c2oc3cccnc3c2-c2ccc(OC)nc2)cc1 | inconclusive: 21.3 µM [inhibitor, single point]

SMILES | Potency
Cc1c(C)c2ccc(OCC(=O)Nc3ccccn3)c(C)c2oc1=O | active: 0.0338 µM
Cc1cc(Cl)ccc1NC(=O)Cc1ccc(NC(=O)N2CCCCc3ccccc32)cc1 | inconclusive: 5.36 µM [inhibitor, partial curve]
CCOC(=O)CNC(=O)COc1ccc(Cl)cc1Br | inconclusive: 15.1 µM [inhibitor, partial curve]
Nc1nc2c(C(=O)N3CCOCC3)nnn2c2ccccc12 | active: 12 µM
Cc1ccc(C(=O)Nc2ccccc2-c2ccccc2)o1 | inconclusive: 37.9 µM [inhibitor, partial curve, poor fit]
O=C(COc1cc2oc(=O)c3c(c2cc1Cl)CCC3)NCc1ccncc1 | inactive
Cc1nn(CC(=O)Nc2ccc(OC(F)(F)F)cc2)c(=O)c2c(C)n(-c3ccc(Cl)cc3)nc12 | inconclusive: 8.49 µM [inhibitor, partial curve, poor fit]
CCOc1ccc2nc(N3CCCC(C(=O)NCCc4ccc(OCC)c(OCC)c4)C3)sc2c1 (stereo unspecified) | inconclusive: 8.49 µM [inhibitor, partial curve]
CCOc1ccc(NC(=O)c2cccc(OC(=S)N3CCC(C)CC3)c2)cc1 | inconclusive: 37.9 µM [inhibitor, single point]
COc1ccc2nc(/C=N/NC(=O)[C@@H]3CCCN3C(=O)OC(C)(C)C)ccc2c1 | inconclusive: 30.1 µM [inhibitor, partial curve, poor fit]
COCc1cc(=O)[nH]c(-c2ccccc2)n1 | inactive
COc1ccc(-n2nc3cc(C)c(NC(=O)c4ccc(-c5ccc(Cl)cc5)o4)cc3n2)cc1 | inactive
CCc1ccc(S(=O)(=O)Nc2ccc3c(c2)n(C)c(=O)c(=O)n3C)cc1 | inactive
CCCCn1nc(NS(=O)(=O)c2cccc3nonc23)c2cc3cccc(C)c3nc21 | inconclusive: 26.9 µM [inhibitor, single point]
COc1ccc(C(=O)Nc2ccc3nc(SCC(=O)N4CCc5ccccc54)sc3c2)cc1 | inconclusive: 1.9 µM [inhibitor, partial curve, poor fit]
O=C(NCc1ccc(Cl)cc1)NCc1noc2ccccc12 | inconclusive: 10.7 µM [inhibitor, partial curve]
O=C(Nc1nc(-c2cccc3ccccc23)cs1)c1ccc2c(c1)S(=O)(=O)c1ccccc1C2=O | inconclusive: 26.9 µM [inhibitor, single point]
CCc1noc(C)c1C(=O)N(C)CC(=O)Nc1ccc(F)c(F)c1F | inactive
COc1ccc(/C=C/C(=O)Nc2cccc(S(=O)(=O)N3CCOCC3)c2)cc1OC | inconclusive: 23.9 µM [inhibitor, single point]
Cc1csc(CN(C)C(=O)c2cn(Cc3cccc4ccccc34)nn2)n1 | inconclusive: 21.3 µM [inhibitor, single point]
C=CCN1N=C(/C=C/c2ccc(C)cc2)CCC1=O | inconclusive: 26.9 µM [inhibitor, single point]
CC(=O)c1sc(NC(=O)c2ccccc2C)nc1C | inconclusive: 23.9 µM [inhibitor, single point]
CCCc1ccc(O)c(N=Cc2cc(Br)cc(OCC)c2O)c1 | inconclusive: 10.7 µM [inhibitor, partial curve]
